Each structure is given as a SMILES string. Whole data set: some 3,600 compounds, median “viability index relative to DMSO control” near 0.81, cut for the lowest 2% near 0.13. The list shows a part of the results.
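Also: 384-well serum-free SaLSSA: MitoTracker Red CMXRos staining with saponin lysis, high-content imaging, treated-well particle count divided by plate-mean count of DMSO wells.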

The assay concerns Plasmodium falciparum NF54 stage V gametocytes. Nature of the assay: viability index relative to DMSO control (fraction); higher = less gametocyte killing. The note with it: 1.25 µM, incubation time: 72 h.
With `COc1ccc(C2CC(=O)C3=C(C2)NC(C)=C(C(=O)OC2CCCCC2)C3c2ccc(F)cc2)cc1OC` (stereo not given), the viability index is 0.664.
Molecule `CCOC(=O)N1CCN(C(=O)CCCCn2c(=S)[nH]c3ccsc3c2=O)CC1` had a viability index of 1.07.
Consider `CN(c1ccccc1)S(=O)(=O)c1ccc(C(=O)Nc2ccc(-c3nc4ccccc4[nH]3)cc2)cc1`, for which the viability index is 0.545.
With `FC(F)(F)COc1nc(N2CCCCC2)nc(N(c2ccccc2)c2ccccc2)n1`, the viability index was 0.804.
For `CCOc1ccc2nc(C)cc(Nc3ccc(OC)cc3)c2c1` the value was 0.735.
In the case of `O=C(c1ccncc1)N1N=C(c2c(-c3ccccc3)c3cc(Br)ccc3[nH]c2=O)CC1c1ccccc1` (stereo not given), the viability index came to 0.733.
For `CC[n+]1c(C=Cc2ccc(N(C)C)cc2)sc2cc(NC(C)=O)ccc21`, the viability index was determined as 0.826.
In the case of `COc1cccc(OC)c1C(=O)Nc1cc(C(F)(F)F)ccc1Cl`, the viability index was 0.971.
For `CCOC(=O)C1=C(N)N(c2cccc([N+](=O)[O-])c2)C2=C(C(=O)CC(C)(C)C2)C1c1ccc(Cl)cc1` (stereo not given), the viability index was 0.607.
Then `COc1ccc(C2C(C(=O)c3ccccc3)=C(O)C(=O)N2c2cccc(Cl)c2)c(OC)c1` (stereo not given), with 0.845.
Regarding `Cc1ccc2nc(-c3ccccc3)cc(C(=O)Nc3ccc(Cl)cc3)c2c1`, the viability index worked out at 1.03.
`CCOC(=O)C1(Cc2ccc(OC)cc2)CCN(C(=O)c2scc3c2OCCO3)CC1` yielded a viability index of 0.923.
With `COc1ccc(C2=C(c3ccc(OC)cc3)C3(c4ccccc4)C(=O)C2(c2ccccc2)C2C(=O)N(c4ccccc4[N+](=O)[O-])C(=O)C23)cc1` (stereo not given), the viability index came out at 0.585.
`COc1ccc(OCC(=O)Nc2cccc(NC(=O)COc3ccc(OC)cc3)n2)cc1` came in with a viability index of 1.
For `Cc1cc(Nc2cccc(Cl)c2)nc2ccc(NC(=O)c3cccnc3)cc12` the value was 0.912; for `COC(=O)C1C(=O)C2=C(CC1C)NC(=O)CC2c1cccc(Cl)c1Cl` (stereo not given), 0.719; for `CC(C)CN1C(=O)c2ccccc2C(C(=O)Nc2ccc(C(C)C)cc2)C1c1cccs1` (stereo not given), 0.281.
Regarding `CCOC(=O)C(=CNc1ccc(I)cn1)C(=O)OCC`, the viability index stood at 0.583.
Then `COc1ccc2c(ccc(C=C3C=CC=CN3C)[n+]2C)c1`, with 0.873; and `CCCCCCCCCn1c2c(c(=N)c3c1CCC3)CCCC2`, with 0.345.
With `Cc1ccc(-n2c(C)cc(C=C3SC(=Nc4ccc(Cl)cc4)NC3=O)c2C)cc1`, the viability index is 0.589.
In the case of `Cn1nc(C(=O)N2CCc3ccccc3C2)c2c1CCC(N1CCN(Cc3cccc(F)c3)CC1)C2` (stereo not given), the viability index came to 1.35.
Turning to `C=C(C)CSc1nc(N)c2c3c(sc2n1)CN(CCC)CC3`, the viability index came to 1.03.
`CCOC(=O)c1sc(NC(=O)C(C)Sc2nnc(CNC(=O)c3cccc(F)c3)n2-c2cccc(C)c2)c(C(=O)OCC)c1C` (stereo not given): the viability index came to 0.917.
In the case of `COc1ccccc1CNC(=O)C1c2ccccc2C(=O)N2CCc3ccccc3C12` (stereo not given), the viability index came out at 0.827.
`O=C(COC(=O)c1ccc2c(c1)C(=O)N(c1ccc3ccccc3c1)C2=O)c1ccc(Br)cc1` had a viability index of 0.793.
As for `Cc1sc2c(c1C)CN(Cc1ccco1)CN2C(=O)c1ccco1`, the viability index was found to be 0.736.
In the case of `COc1ccc2nc(C)cc(Nc3ccc(N4CCN(C)CC4)cc3)c2c1`, the viability index came out at 0.873.
On to `Cc1ccc(C(=O)NNc2nc(Nc3ccccc3)nc(N3CCCC3)n2)cc1`, for which the viability index turned out to be 0.679.
Consider `Cc1nc2ncccn2c1-c1csc(Nc2ccccn2)n1`, for which the viability index was 1.06.
As for `C#CCNC(=O)c1ccc(OC2CCN(CC3CCCCC3)CC2)c(Cl)c1`, the viability index was found to be 0.774.
With `Cc1cccc2cc(C(c3nnnn3C3CCCC3)N3CCCC4(CCCCC4)C3)c(=O)[nH]c12` (stereo not given), the viability index amounted to 1.19.
For `Cc1cccc(-c2cc3nc(C)c(C)c(O)n3n2)c1` the value was 0.776; for `COc1ccc(C=CC(=O)NC(=O)c2ccccc2O)cc1`, 0.788.
Molecule `COc1ccc(C2CC(=O)C3=C(C2)NC(C)=C(C(=O)OC2CCCC2)C3c2ccccc2F)cc1OC` (stereo not given) displayed a viability index of 0.548.
For `OCCNc1nc(Nc2ccccc2O)nc2ccccc12`, the viability index turned out to be 1.07.
In turn, `COc1ccccc1-c1nnc(Nc2nc3cc4c(cc3s2)OCO4)o1` yielded a viability index of 0.719.
The molecule `CC1CCCCN1CCCNCc1ccc(OCc2ccccc2)cc1` (stereo not given) returned a viability index of 0.699.
For `CCOC(=O)C1=CN(C)C=C(C(=O)OCC)C1c1cc(Br)c(OCC)c(OC)c1` the value was 0.651; for `CCOc1nc2c(c(=O)n(C)c(=O)n2C)n1Cc1cccc(Br)c1`, 1.03; for `Cc1cc(Nc2ccccc2)nc(Nc2ccccc2)n1`, 0.538.
In the case of `Cc1ccccc1C=NNc1nc2ccccc2[nH]1`, the viability index amounted to 0.83.
With `Cc1cccc(NC(=O)CCCn2c(=O)c3cccn3c3ccccc32)c1C`, the viability index came to 0.341.
Then `COc1ccc(OC)c(C2C3=C(CC(C)(C)CC3=O)N(c3ccc(Cl)c(Cl)c3)C3=C2C(=O)CC(C)(C)C3)c1`, with 0.498.
Molecule `CCOC(=O)NN=C(C)c1ccc(C(C)=NNC(=O)OCC)cc1` displayed a viability index of 0.768.
As for `COc1cc2nc(Nc3cccc(F)c3)nc(N)c2cc1OC`, the viability index was 0.585.
`COc1ccc(C2=C(c3ccc(OC)cc3)C3(c4ccccc4)C(=O)C2(c2ccccc2)C2C(=O)N(c4ccccc4)C(=O)C23)cc1` (stereo not given) gave a viability index of 1.34.
On to `FC(F)(F)c1ccccc1NC(=S)N1CCCN(c2nc3ccc(Cl)cc3s2)CC1`, for which the viability index came out at 0.722.
On to `CCn1ccccc1=Nc1cccc[n+]1CC`, for which the viability index came to 0.771.
In the case of `COc1cc(OC)cc(C(=O)N2CCN(Cc3cccc(Br)c3)CC2)c1`, the viability index was determined as 0.97.
`CN(C)c1ccc(Nc2nc(NCC3CCCO3)c3ccccc3n2)cc1` (stereo not given) yielded a viability index of 0.853.
For `CCOC(=O)C1CCN(C(=S)Nc2ccc3nsnc3c2)CC1` the value was 1.08; for `COc1ccc(C2C(C(=O)Nc3cccc(OC)c3)c3ccccc3C(=O)N2C2CCCCC2)cc1` (stereo not given), 0.831; for `CCN(c1ccc(F)cc1)S(=O)(=O)c1ccc2[nH]cc(C(=O)NC(C)(C)C)c(=O)c2c1`, 0.95.
In turn, `O=C(Cc1ccccc1)NC(c1ccc(Cl)cc1)c1ccc2cccnc2c1O` (stereo not given) came in with a viability index of 0.755.
